Data taken from ChEMBL document CHEMBL4888484, “Replenishing the malaria drug discovery pipeline: Screening and hit evaluation of the MMV Hit Generation Library 1 (HGL1) against asexual blood stage Plasmodium falciparum ,using a nano luciferase reporter read-out” (2022).
About 540 (0.36%) of roughly 150,000 compounds showed an effect of 50% or more. The list shows a part of the results.

The compounds below were run on Plasmodium falciparum (assay: Primary screen in NF54 nanoGlo assay, in single point, at 2uM, 72h; a lower Z score goes with more inhibition). Details: timepoint 72 hour.
Assay type: functional, Erythrocyte

| SMILES | % Inhibition [%] | Z score |
| --- | --- | --- |
| CCCCn1nnnc1CN1CC(C)OCC1C (stereo unspecified) | -6 | 0.59 |
| Cc1[nH]c2ccccc2c1C1C(CC(=O)N(Cc2ccco2)C(C)(C)C(=O)Nc2ccc(N(C)C)cc2)C1(C)C (stereo unspecified) | -35 | 4.12 |
| CCCCN(C)S(=O)(=O)N1CC[C@H](NC(=O)OC(C)(C)C)C1 | 2 | -0.33 |
| Cc1cnc(C(=O)N2C[C@@H]3COc4ccccc4C[C@]3(CO)C2)cn1 | -5 | 0.88 |
| CCc1ccc(S(=O)(=O)N2CCN(C)[C@@]3(CCNC(=O)CC3)C2)s1 | -17 | 2.46 |
| COc1ccc(N2CCN(Cc3cc(C4CC4)n[nH]3)CC2)cc1 | -13 | 2.02 |
| CC(C)S(=O)(=O)N1CC[C@H](n2cc(COCC3CC3)nn2)C1 | -11 | 1.61 |
| CC(C)(C)c1ncc(CN2CCOC(C3CCCO3)C2)s1 (stereo unspecified) | -2 | 0.43 |
| CCNc1cc(C(=O)NC[C@@]2(C)CCN(C(=O)c3ccnc(NCC)c3)C2)ccn1 | -6 | 0.68 |
| Cc1ccc(OCC(=O)Nc2noc(-c3cccc4ccccc34)n2)cc1C | -4 | 0.53 |
| CC(=O)N1CCN(C(=O)c2cc3oc(C)cc3n2CCOc2ccccc2)CC1 | 8 | -1.33 |
| CC(NCC(N)c1ccccc1)c1nccs1 (stereo unspecified) | -4 | 0.81 |
| CCCn1nnc2cc(S(=O)(=O)N3CCCC[C@H]3C(=O)NCc3cccc(C)c3)ccc21 | -16 | 2.64 |
| Fc1ccc(CNC[C@H]2Cn3c(-c4ccc5c(c4)OCCO5)cnc3CO2)cc1 | -10 | 1.26 |
| N#C[C@H]1C(=O)c2ccccc2N(Cc2ccccc2)C1=O | -5 | 0.84 |
| O=C(NC1CC1)N(CCN1CCCC1)Cc1ccc(Cl)cc1 | -1 | 0.1 |
| CN(CCC#N)C(=O)Cn1ccc(C(F)(F)F)n1 | -2 | 0.28 |
| Cc1ncc(C(=O)NC[C@@H](c2ccc(F)cc2)N2CCCC2)c(O)n1 | -8 | 1.17 |
| CN1C(=O)[C@@H]2CCC[C@H]1CN(Cc1cc(C3CC3)n[nH]1)C2 | -6 | 1.17 |
| O=C(O)[C@H]1CCCN(C(=O)c2ccc(-c3nc(C4CC4)no3)cc2)C1 | -6 | 1.15 |
| CO[C@@H](C(=O)N1CCC2(CCC(O)CC2)CC1)c1ccccc1 | -9 | 1.18 |
| CCN1C(=O)[C@@H]2CC3(CCN(S(=O)(=O)c4cccnc4)CC3)CN2C1=O | -9 | 1.17 |
| O=C(O)[C@@]12COC[C@@H]1CN(Cc1cc(Cl)cc3ccccc13)C2 | 3 | -0.56 |
| Cc1ccc(CN(C)C(=O)c2cc(COc3ccc4c(c3)OCO4)[nH]n2)o1 | 0 | 0.04 |
| Cc1nn(C)c2nc(NC[C@H]3CCN(C4CCCC4)C3)sc12 | -8 | 1.44 |
| CN(CC(=O)NCc1ccco1)C(=O)Cn1cnc2ccccc2c1=O | 15 | -2.17 |
| Cc1c(-c2c(-c3ccccc3)ncn2CCS(C)(=O)=O)[nH]c2ccccc12 | -5 | 0.58 |

| SMILES | % Inhibition [%] | Z score |
| --- | --- | --- |
| O=C(c1cccnc1)N1CC[C@H](Cc2noc(C3CC3)n2)C1 | 4 | -0.57 |
| Cc1ccc(C2=NO[C@H](c3ccc(C)cc3)C2)cc1 | -10 | 1.99 |
| CN(CC(=O)N1N=C(c2ccccc2F)C[C@H]1c1ccc(Cl)cc1)C(=O)c1cccc(F)c1 | 9 | -0.99 |
| CCn1ncc(NC(=O)c2cccc(OC)c2)c(N2CCCCC2)c1=O | -1 | 0.23 |
| CC[C@H](NCCCC#N)c1ccc(F)cc1F | 6 | -0.87 |
| Cc1ccc(C(=O)NCc2cc[nH]n2)n1C(F)F | -10 | 1.22 |
| COc1cc(Cl)cc([C@H](C)Nc2cc(N3CCNCC3)ccc2S(C)(=O)=O)c1OC | -7 | 1.14 |
| CCCCc1nc([C@H]2CC(=O)Nc3c2cnn3Cc2cccnc2)c[nH]1 | -4 | 0.82 |
| COC(=S)NC(=O)c1ccc(Cl)cc1 | 4 | -0.49 |
| O=C(CC1CCC(F)(F)CC1)Nc1ccc2c(n1)OCCO2 | -3 | 0.34 |
| CCc1nc(CN2CCN(S(=O)(=O)Cc3ccccc3C)CC2)no1 | 7 | -1.4 |
| O=C(N[C@@H]1C=C[C@H](CO)C1)c1cn2ccnc2s1 | -2 | 0.29 |
| Cn1ccnc1-c1noc(C[C@@H]2C[C@H]2c2ccccc2)n1 | -6 | 0.68 |
| Cc1ccc(N2C(=O)C3C(c4ccccc4O)NC(Cc4c[nH]c5ccccc45)(C(=O)O)C3C2=O)cc1 (stereo unspecified) | 0 | 0.06 |
| Cc1nc(-c2ccc3c(c2)OCO3)cs1 | -13 | 1.85 |
| CC[C@@H](CO)NC(=O)Nc1cccc(C)c1 | 34 | -0.75 |
| COc1ccc(S(=O)(=O)N[C@H]2CCNC2=O)c2c1CCCC2 | -12 | 1.54 |
| CCC1CC(NC(=O)NCc2ccc3occc3c2)CCO1 (stereo unspecified) | 4 | -0.59 |
| CC(C)[C@H](NC1CN(C(=O)OCc2ccccc2)C1)c1nncn1C | -8 | 1.43 |
| COc1ccc(Oc2cn[nH]c2-c2ccc(OCc3ccc(F)cc3)cc2O)cc1 | 4 | -0.82 |
| Cc1ccc2nc(CCCNC(=O)c3cc4n(n3)CCCN(C)C4)oc2c1 | -7 | 1.25 |
| CCCCOCCCNC(=O)CS(=O)(=O)Cc1ccccc1 | -8 | 1.57 |
| Cc1cc(C2(NC(=O)Nc3cccc(-n4ccnn4)c3)CCOCC2)on1 | -8 | 1.24 |
| O=C(Cc1c[nH]c2ccccc12)N1CC[C@H](CCOc2ccccc2F)C1 | -6 | 1.07 |
| COc1cccc(C(=O)N(CCC(=O)N2CCNCC2)CCC(C)C)c1 | -3 | 0.34 |
| O=C1N(C2CCCCC2)CCC[C@@]12CCN(c1nc(CO)cs1)C2 | -3 | 0.65 |
